Results on 81 compounds are retold here after PubChem BioAssay (NCI).

“And” between values parts separate entries of the source, which are not always exact repeats. Equal values may be shown once.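 48-hour exposure; five concentrations; linearly interpolated endpoints. The concentration for 50% growth inhibition is given as GI50. TGI marks complete inhibition of growth.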 Bounds are passed on as bounds.

For the assay, the system named is NCI-H322M lung. As to the kind of experiment: NCI tumour cell line growth inhibition, 48 h.

Turning to `Cc1c(C(=O)CSc2nc3ccccc3c(=O)n2-c2ccccc2)c(=O)n(-c2ccccc2)n1C`, the TGI is over 100 µM.
Same read-out and setting: the result for `BrC/C=C/C[P+](c1ccccc1)(c1ccccc1)c1ccccc1` reads over 100 µM; that for `CN(C)CCCN1C(=S)N(CCCN(C)C)c2c3cc(O)ccc3nc3c([N+](=O)[O-])ccc1c23`, 24.4 µM.
On the same count and under the same terms, the result for `CSc1c(C)c(C)nn1-c1ccccc1` reads over 100 µM; that for `COc1ccc2nc3cc(Cl)ccc3c(NCCCNCCCNc3c4ccc(Cl)cc4nc4ccc(OC)cc34)c2c1`, 0.169 µM.
With `COc1ccc2cc(-c3ccc(-c4ccc(C(=N)N)s4)s3)ccc2c1`, the GI50 was 2.02 µM and the TGI stood at 4.88 µM.
For the compound `C[C@H]1[C@H](C)CC[C@]2(C(=O)NCCNCCN)CC[C@]3(C)C(=CC[C@@H]4[C@@]5(C)CCC(=O)C(C)(C)[C@@H]5CC[C@]43C)[C@H]12`, the GI50 was 1.61 µM and the TGI turned out to be 2.97 µM.
Taken in the same sequence, the figures for `C=C(CN1CCc2ccccc2C1)c1ccc(C(=O)Nc2ccccc2N)cc1` were 2.71 µM and 14.9 µM.
`Cc1nn(C(=O)Cc2ccccc2)c2c1C(c1ccc(O)cc1)SC(N)=N2` (stereo not drawn) gave a TGI of over 100 µM.
Still for that read-out and setting: the value for `O=C1C=CC(=O)N1Nc1ccc([N+](=O)[O-])cc1[N+](=O)[O-]` was over 100 µM; that for `NNC(=O)c1ccc[n+](CCc2ccccc2)c1` was over 100 µM.
On to `CCN(CC)CCNC(=O)c1c(C)[nH]c(/C=C2\C(=O)Nc3ccc(F)cc32)c1C`, for which the GI50 was 0.877 µM and 2.54 µM and 5.46 µM; the TGI is > 10 µM and 9.3 µM and 20.5 µM.
Take `CCOC1Oc2ccccc2-c2oc(=O)c(Sc3ccc(C)cc3)cc21` (stereo not drawn): the GI50 was 46.4 µM and the TGI is over 100 µM.
Taken in the same sequence, the figures for `O=C(/C=C/c1ccccc1)CC(c1ccccc1)N1CCOCC1` (stereo not drawn) were 15.6 µM and 30.8 µM.
Compound `C=CCOC(=O)CC[N+]1=CCC(c2ccccc2)(c2ccccc2)O1` registered a TGI of over 100 µM.
On the same count and under the same terms, the result for `CCCCCCCCCCCCCC(=O)OCC1OC(=O)CC1O` (stereo not drawn) reads over 100 µM.
As for `CCN(CC)CCNC(=O)c1cn2ncnc(Oc3ccc(NC(=O)Nc4ccc(Cl)c(C(F)(F)F)c4)c(F)c3)c2c1C`, the GI50 is 1.83 µM and the TGI was 3.26 µM.
Taken in the same sequence, the figures for `CC(=O)N[C@H](C(=O)N[C@@H](CCCNC(=N)N)C(=O)N[C@@H](CCCCN)C(=O)N[C@@H](CCCNC(=N)N)C(=O)N[C@]1(C)CCCCCC/C=C\CCC[C@@](C)(C(=O)N[C@@H](CCCNC(=N)N)C(=O)N[C@@H](CCC(=O)O)C(=O)N[C@@H](CC(C)C)C(=O)N[C@H](C(=O)N[C@@H](CCC(=O)O)C(N)=O)C(C)C)NC(=O)[C@H](CCC(N)=O)NC(=O)[C@H](CC(C)C)NC(=O)[C@H](CC(C)C)NC(=O)[C@H](CCCNC(=N)N)NC(=O)[C@H](CCCNC(=N)N)NC(=O)[C@H](CC(C)C)NC1=O)C(C)C` were 3.58 µM and 26.5 µM.
Taken in the same sequence, the figures for `OB1OCc2cc(/C=C/c3cccc(C(F)(F)F)c3)ccc21` were 3.11 µM and over 100 µM.
Regarding `CC1(C)N=C(C(N)=O)c2ncn(CCCO)c2N1`, the TGI was over 100 µM.
For `Cc1c2c(n(CCc3ccc(Cl)cc3)c1C)NN=C(C#N)S2(=O)=O`, the TGI is over 100 µM.
Take `CCC(=C(c1ccc(OCCCN(C)C)cc1)c1ccc(OCCCN(C)C)cc1)c1ccc(Cl)cc1`: the GI50 is 0.967 µM and the TGI worked out at 2.95 µM.
Taken in the same sequence, the figures for `Cn1c([N+](=O)[O-])cnc1/C=C1\Oc2cc(Cl)ccc2C1=O` were 7.56 µM and 38.6 µM.
Consider `O=C1c2cc3c(cc2CC1Br)CCC3` (stereo not drawn), for which the TGI amounted to 29.8 µM.
Regarding `O=C1C(Cl)=C(Nc2ccccc2)C(=O)c2ccccc21`, the GI50 is 17.8 µM and the TGI came out at 46.5 µM.
`CCN(C(=S)N[C@@H](Cc1ccccc1)C(=O)N[C@@H](CC(C)C)C(=O)OC)c1ccccc1` returned a TGI of over 100 µM.
Still for that read-out and setting: the value for `N#C/C(=C\c1cc(Br)c(O)c(Br)c1)c1cccnc1` was over 100 µM; that for `CCOC(=N)n1c(=O)n(C2=NCCN2)c2ccccc21` was over 100 µM; that for `C=CC[C@]12C[C@@H](C(=O)OC)N(C(=O)OC)[C@H]1N(S(=O)(=O)c1ccccc1)c1ccccc12` was over 100 µM.
Same read-out and setting: the value for `O=C(NC12CC3CC(CC(C3)C1)C2)C(=O)c1c[nH]c2ccc(Cl)cc12` was over 100 µM.
`O=c1c2cc3c(cc2[nH]c2ncccc12)OCO3` registered a TGI of over 10 µM.
As for `COc1cc2c(cc1-c1c(C)noc1C)cc(C)c(=O)n2Cc1ccccn1`, the GI50 was 3.88 µM and the TGI is over 100 µM.
The compound `CC[C@H]1CN2CCc3cc(OC)c(OC)cc3[C@@H]2C[C@@H]1C[C@H]1NCCc2cc(OC)c(OC)cc21` gave a TGI of 0.272 µM.
Still for that read-out and setting: the result for `NC(N)=NS(=O)(=O)c1ccc(NC(=O)c2cccc3c(Nc4ccc(S(N)(=O)=O)cc4)c4ccccc4nc23)cc1` reads over 100 µM; that for `CN(C)c1ccc(C=C2N=C(c3ccccc3)N(c3cc(C(=O)c4ccccc4)ccc3N3C(=O)/C(=C/c4ccc(N(C)C)cc4)N=C3c3ccccc3)C2=O)cc1`, over 100 µM.
In the case of `C=CCSc1nc2ccccc2c(=O)n1Cc1ccco1`, the TGI is over 100 µM.
On the same count and under the same terms, the result for `CCOC(=O)/C(=C/c1cccc(OC)c1)N(CC)CC` reads over 100 µM; that for `O=C1C[C@H](Sc2ccccc2)C2(OCCO2)[C@@H](Sc2ccccc2)C1`, 20.1 µM.
As to `C#CCC(N)(CO)C(=O)O` (stereo not drawn), the TGI is over 100 µM.
`Oc1ccccc1/C=N/c1nc2cc3sc(/N=C/c4ccccc4O)nc3cc2s1` showed a TGI of over 100 µM.
Still for that read-out and setting: the result for `C/C=C/C=C/c1nc(C#N)c(N)o1` reads over 100 µM.
On to `Cc1nc(Nc2n[nH]c3c2CN(C(=O)N[C@H](CN(C)C)c2ccccc2)C3(C)C)c2sccc2n1`, for which the GI50 was 0.148 µM and 0.248 µM; the TGI was > 5.88 µM and 11.8 µM.
Compound `CC(C)/C(Cl)=N\OC(=O)Nc1ccc(C#N)cc1` registered a TGI of 31.6 µM.
`COc1ccc(C#CC(=O)O)c(OC)c1`: the TGI was over 100 µM.
On to `CCOC(=O)/C=C(\C)c1ccc(C)cc1C`, for which the TGI was over 100 µM.
As for `CC(=O)OC1COC(n2c(=S)n(-c3ccccc3)c(=O)c3cc(Br)ccc32)C(OC(C)=O)C1OC(C)=O` (stereo not drawn), the TGI is over 100 µM.
`COC(=O)[C@]12CC[C@H]3CN(C(=O)OCc4ccccc4)[C@H]([C@H]31)[C@H](c1ccco1)N2S(=O)(=O)c1ccc(C)cc1` registered a TGI of over 100 µM.
Compound `Cc1csc(-c2cn(C)c3c2C(=O)C(N)=CC3=O)n1` gave a TGI of over 100 µM.
In turn, `Cl[Si]1(Cl)Oc2ccccc2O[Si](Cl)(Cl)Oc2ccccc2O1` showed a TGI of over 100 µM.
Same read-out and setting: the value for `COc1ccc(C(OCC2OC(n3cc(C)c(=O)[nH]c3=O)CC2n2cc(Cn3cc(F)c(=O)[nH]c3=O)nn2)(c2ccccc2)c2ccccc2)cc1` (stereo not drawn) was 19.8 µM.
`CC1(C)N=C(N)N=C(N)N1c1ccc(OCC(=O)Nc2ccccc2)c(Cl)c1`: the GI50 is 12.7 µM and the TGI is over 100 µM.
For `O=C/C(=C(/Cl)c1ccc(O)cc1)c1ccccc1`, the TGI came to 97.5 µM.
With `COc1ccc(-c2nnc(N3CCN(C(=O)CN4CCN(c5ccc(OC)cc5)CC4)CC3)nc2-c2ccc(OC)cc2)cc1`, the GI50 was 13.8 µM and the TGI stood at 41.5 µM.
Regarding `CCOC(=O)c1c(-c2ccc(OC)cc2)c(C#N)c(=S)n(C2OC(COC(C)=O)C(OC(C)=O)C(OC(C)=O)C2OC(C)=O)c1C` (stereo not drawn), the TGI is over 100 µM.
The same measure, in the same setting: the result for `CS(=O)(=O)OCCn1c(=O)n(CCOS(C)(=O)=O)c(=O)n(CCOS(C)(=O)=O)c1=O` reads over 100 µM.
In the case of `Cc1cc(Nc2nc(SCc3ccc(C(=O)Nc4ccc(F)cc4N)cc3)nn3cccc23)n[nH]1`, the GI50 is 1.01 µM and the TGI is over 100 µM.
Taken in the same sequence, the figures for `CCSc1nc(N)c2cn[nH]c2n1` were 19.6 µM and 56.6 µM.
For the compound `Cc1cc2c(Br)cc(Br)c(O)c2nc1C(=O)c1ccccc1`, the TGI is 50.1 µM.
On the same count and under the same terms, the value for `CC1=C(C(=O)Nc2ccccc2C)C(/C=C/c2ccccc2)C(C(=O)Nc2ccccc2C)=C(C)N1` was over 100 µM; that for `CC(C(=O)n1nnc2ccccc21)N(c1ccccc1)c1ccccc1` (stereo not drawn) was over 100 µM; that for `O=C1C(SCCO)=C(SCCO)C(=O)c2ccccc21` was 3.2 µM.
On the same count and under the same terms, the value for `CN(C)Cc1cc(C(=O)/C=C/c2ccc(O)cc2)cc(CN(C)C)c1O` was over 100 µM.
With `Cn1c2ccccc2c2c(=O)c3ccccc3[nH]c21`, the GI50 was 24.6 µM and the TGI is over 100 µM.
With `C[n+]1c2ccccc2cc2c(CNC(CCCN=C(N)N)C(=O)O)cccc21` (stereo not drawn), the GI50 is 9.53 µM and the TGI stood at 21.2 µM.
Regarding `O=C(NCCCN(CCCCN(CCCNC(=O)C(F)(F)F)Cc1ccccc1)Cc1ccccc1)C(F)(F)F`, the TGI was 29.1 µM.
Same read-out and setting: the result for `CCCn1c(CN(Cc2nc3ccccc3n2CCC)Cc2nc3ccccc3n2CCC)nc2ccccc21` reads over 70.4 µM; that for `Cc1ccc2c(c1)Sc1ccc(N=NN(C)C)cc1N2C`, over 100 µM.
Still for that read-out and setting: the result for `C1=CC2=CC=CC3c4nc5ccc6ccccc6c5nc4C(=C1)C23` (stereo not drawn) reads over 100 µM; that for `O=C(NC(Cc1ccc(I)cc1)C(=O)O)c1ccc(I)cc1` (stereo not drawn), over 100 µM; that for `CCOC(=O)NC(=S)NN(C)C1=NCC(C)(C)S1`, over 100 µM.
Take `COc1cc([N+](=O)[O-])c(OC)cc1-c1nc2sc(Cl)cn2c1/C=N/Nc1ccccn1`: the GI50 is 12.6 µM and the TGI was over 50 µM.
`OC(c1ccc(Br)cc1)(c1cccs1)C1CC1` (stereo not drawn) had a TGI of over 100 µM.
In turn, `N#CCCN(CCC#N)c1ccc(/C=C2\N=C(c3ccccc3)N(c3ccc(Cl)cc3)C2=O)cc1` came in with a TGI of over 100 µM.
As to `O=C(NCCN1CCOCC1)c1ccc2cc(C(=O)N3CC(CCl)c4ccc([N+](=O)[O-])cc43)[nH]c2c1` (stereo not drawn), the TGI was over 100 µM.
Consider `COCOc1ccc(Cn2c(=O)n(C)c(=O)c3c2ncn3C)cc1[N+](=O)[O-]`, for which the TGI is over 100 µM.
Turning to `O=C(c1cc2ccccc2cc1O)N1CCCCC1`, the TGI was over 100 µM.
Turning to `O=C1C2=C(c3ccccc31)C(c1ccccc1Cl)N1C(=O)CCSC1=N2` (stereo not drawn), the TGI was over 100 µM.
The same measure, in the same setting: the result for `COc1cc(NS(C)(=O)=O)ccc1N1Cc2cnc3ccc4[nH]c(C)cc1c4c23` reads over 100 µM; that for `C=CCO/N=C/c1cc(NC(=S)c2ccoc2C)ccc1Cl`, 32.5 µM.
As for `CCCCCCCCCCN=C(c1ccc(N(C)C)cc1)c1ccc(N(C)C)cc1`, the GI50 was 3.52 µM and the TGI is over 100 µM.
As to `Cc1cn(C2OC(C)(CO)C(O)C2O)c(=O)[nH]c1=O` (stereo not drawn), the TGI is over 100 µM.
